The values below come from the supplement of paper PMC4166925.

± gives the standard deviation of the averaged measurements. The full ranking holds about 33,000 sequences; the median of “E-score (dimensionless, -0.5 to 0.5)” is about -0.049, and the highest 2% start at about 0.37. Some of the results follow.

The test system of the assay is T1, PmTbr T-box DNA-binding domain (GST fusion).
T1 sequence: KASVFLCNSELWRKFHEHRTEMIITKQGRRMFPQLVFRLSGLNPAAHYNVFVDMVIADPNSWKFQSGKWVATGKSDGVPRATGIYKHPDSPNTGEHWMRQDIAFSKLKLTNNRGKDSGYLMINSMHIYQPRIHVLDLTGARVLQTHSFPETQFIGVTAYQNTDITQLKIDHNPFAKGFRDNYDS
In words: PBM E-score of 8-mer (E-score (dimensionless, -0.5 to 0.5)); Tbr is Tbrain of the sea star Patiria miniata (Pm) or the sea urchin Strongylocentrotus purpuratus (Sp); higher = stronger binding preference; most listed sequences are background and not binding sites. The settings on record: the construct has about 5 more residues each side. Put shortly:
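GST-fused Tbr T-box DNA-binding domains (the whole T-box plus about five flanking residues) were expressed in BL21 E. coli at 20 °C and purified by glutathione affinity chromatography. Universal Agilent oligonucleotide arrays were made double-stranded by primer extension, incubated with 200 nM protein in PBS (pH 7.5), then scanned and quantified. Every ungapped 8-mer was scored from probe intensities. The Universal PBM Analysis Suite gave each word an enrichment E-score, averaged over duplicate arrays.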
As for AATCCAAA, the “PBM E-score of 8-mer” value was 0.0643 ± 0.04.
As for GCCACCTA, the “PBM E-score of 8-mer” value was found to be 0.336 ± 0.033.
In the case of GTGCAGCA, the “PBM E-score of 8-mer” value is -0.164 ± 0.039.
Take CATGGGCA: the “PBM E-score of 8-mer” value was -0.0349 ± 0.041.
The value for AATTCACG was 0.365 ± 0.0071.
The value for CCAAGTGC was 0.291 ± 0.032; that for GACCCGGA was -0.0679 ± 0.07; that for GACATGGC was -0.24 ± 0.08.
For the sequence CATACCCG, the “PBM E-score of 8-mer” value was -0.0273 ± 0.091.
As for ACACGCCC, the figure is 0.145 ± 0.041.
The value for GGAATCAA was -0.0556 ± 0.03; that for GAGTACAA was -0.0531 ± 0.051; that for ATAGTGAA was 0.0433 ± 0.046.
As to CGGACAAC, the “PBM E-score of 8-mer” value is -0.106 ± 0.065.
For CCCGAGCA, the “PBM E-score of 8-mer” value is -0.168 ± 0.032.
As for CACATGAC, the figure is 0.194 ± 0.061; as for AATAATGT, -0.106 ± 0.067; as for CGAACGGA, -0.0168 ± 0.028.
With ACAAACAT, the “PBM E-score of 8-mer” value stood at 0.064 ± 0.042.
As for AAAAGCTG, the figure is 0.0974 ± 0.097.
Turning to CCAGAGTC, the “PBM E-score of 8-mer” value was -0.196 ± 0.0072.
As for GTAACGCA, the “PBM E-score of 8-mer” value was 0.103 ± 0.06.
The value for ATGTCTTA was -0.111 ± 0.1; that for CCAGCTAA was -0.0644 ± 0.011.
As for ATTCAGTA, the figure is -0.258 ± 0.061.
For ACACGGGT, the “PBM E-score of 8-mer” value turned out to be 0.158 ± 0.045.
Take ACCTACAC: the “PBM E-score of 8-mer” value came out at 0.128 ± 0.078.
The value for GACCGGCA was 0.0892 ± 0.02; that for GTGATGAA was 0.268 ± 0.0068.
For the sequence TCCCAAGA, the “PBM E-score of 8-mer” value was -0.0329 ± 0.012.
As for GTAATGCA, the figure is -0.254 ± 0.07; as for AGCGGTGC, 0.045 ± 0.057.
As to GATATTAC, the “PBM E-score of 8-mer” value was -0.154 ± 0.026.
As for CGCGTTTC, the figure is 0.00403 ± 0.032; as for CATGCAGA, -0.208 ± 0.025.
Consider AATCGTAT, for which the “PBM E-score of 8-mer” value is -0.15 ± 0.07.
As for CTAGGCTA, the figure is -0.0349 ± 0.0095.
As for AGCGGCAC, the figure is 0.168 ± 0.017; as for AGGTGTAG, 0.408 ± 0.0046; as for AAATATTC, -0.205 ± 0.012.
The value for GGGTAACC was -0.125 ± 0.075; that for CGAGTAAA was -0.0766 ± 0.038; that for GTCTGGGA was -0.171 ± 0.033.
For AAATAGAA, the “PBM E-score of 8-mer” value is -0.144 ± 0.045.
In the case of CCCTTGGC, the “PBM E-score of 8-mer” value is 0.0967 ± 0.0044.
As for GGCACTAC, the figure is -0.0196 ± 0.072; as for CGATTTAG, -0.0692 ± 0.0091; as for GCGCTAAA, 0.394 ± 0.012.
For the sequence GTTCGTTA, the “PBM E-score of 8-mer” value was 0.0349 ± 0.023.
The value for AAGTCGGT was 0.06 ± 0.002; that for CGGTTGAG was -0.149 ± 0.036; that for ACTATTCC was -0.0748 ± 0.068.
ATGTGCGG: the “PBM E-score of 8-mer” value turned out to be 0.0803 ± 0.028.
As for GGTACTGA, the figure is -0.195 ± 0.048; as for GAGTCGCC, 0.00916 ± 0.036; as for ACCTTGCC, 0.00429 ± 0.0073.
As for ACGCCAAC, the figure is 0.137 ± 0.033; as for GGCCGAGA, 0.0414 ± 0.00058; as for TGCTGGAA, -0.261 ± 0.065.
The value for GGCGTTGA was 0.313 ± 0.015.
In the case of CAACACAG, the “PBM E-score of 8-mer” value was 0.143 ± 0.018.
For the sequence GTTACTGA, the “PBM E-score of 8-mer” value is -0.0553 ± 0.05.
The value for AACGCGTA was 0.138 ± 0.0028; that for AGAACACG was 0.167 ± 0.045.
